The campaign covered roughly 300,000 compounds. About 1,200 (0.4%) were called active. Inconclusive results, whose numbers are uncertain, are shown with a selection of clear calls. Calls follow the shape of the dose curve; as a rule, active = well fitted inhibition curve with a large enough effect; inconclusive = small, poorly fitted or top-dose-only effect, or another doubt; inactive = no such curve, though single readings can be large or run the other way. A potency beside an inconclusive call is a rough fit, not a confirmed value.
The molecules below were run against Lysosomal alpha-glucosidase (Homo sapiens) (UniProt P10253) (assay: qHTS Assay for Inhibitors and Activators of Human alpha-Glucosidase Cleavage of Glycogen). Conditions: recombinant GAA, glycogen substrate, Amplex Red glucose oxidase fluorescence; activity change, negative = inhibition: at 76.4 µM (top of the series) unless noted.
Method in brief: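 qHTS, 1536-well; enzyme 4 nM final; cpd up to 77 uM; substrate bovine liver glycogen 30 ug; 50 mM citrate/phosphate pH 5.0, 0.01% Tween-20; 37 C, 40 min; Amplex Red detection 45 min RT; Hill fit → AC50.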
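For activity change, negative = inhibition in this document: 0% = full enzyme reaction and -100% = no-enzyme basal signal.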
Potency is read from the fitted curve at half-maximal effect.

| Compound | Potency | activity change, negative = inhibition |
| --- | --- | --- |
| Cc1cc(-c2csc(NC(=O)c3ccc(=O)[nH]c3)n2)c(C)n1Cc1ccccc1 | inconclusive: 31.6 µM [activator, partial curve] |  |
| O=C(NNc1c(Cl)cccc1Cl)c1c(F)cccc1Cl | inconclusive: 12.6 µM [inhibitor, partial curve] |  |
| CCOc1cc(/C=C2\SC(N)=NC2=O)ccc1O | active: 10 µM |  |
| Cc1ccc2nc(Nc3ccccc3O)nc(-c3ccccc3)c2c1 | inconclusive: 15.7 µM [inhibitor, partial curve] |  |
| CCCCNC(=S)NNC(=O)c1ccco1 | inconclusive: 50.1 µM [inhibitor, single point] |  |
| COc1ccc(/C=N\Nc2ccccn2)c(OC)c1 | inconclusive: 12.6 µM [inhibitor, partial curve] |  |
| COc1ccc(C(=O)n2nc(-c3ccco3)nc2NCc2cccs2)cc1OC |  | inactive: -12.2% [at 76.3 µM] |
| CCc1ccccc1NC(=O)N(C)CCc1c(C)nn(C)c1C |  | inactive: -6.97% [at 76.3 µM] |
| CCOC(=O)C1C(c2ccc(OC)c(OC)c2)c2c([nH][nH]c2=O)CC1(C)O (centres undefined) | inconclusive: 28.2 µM [inhibitor, single point] |  |
| CC(C)=NNc1nc(-c2ccc(N3C(=O)CCC3=O)cc2)cs1 | inconclusive: 39.8 µM [inhibitor, partial curve] |  |
| CCOc1nc(NCCc2ccc(OC)c(OC)c2)nc(NC(C)(C)CO)n1 | inconclusive: 39.8 µM [inhibitor, partial curve, poor fit] |  |
| CCOc1ccc(N2C(=O)C(Cl)=C(Nc3ccccc3O)C2=O)cc1 | inconclusive: 17.8 µM [inhibitor, partial curve] |  |
| CCc1cc(C(=O)OC)c(NC(=O)CC2Nc3cc(C)c(C)cc3NC2=O)s1 (centres undefined) | inconclusive: 31.6 µM [activator, partial curve] |  |
| O=C(NNC(=O)c1cccnc1)NC1CCCCC1 |  | inactive: -2.97% |
| CCN(Cc1ccccc1)C(=O)CN(c1ccc(OC)cc1)S(=O)(=O)c1c(C)nn(C)c1C |  | inactive: -3.67% [at 76.3 µM] |
| COc1ccccc1N1CCN(/N=C/c2cccc(OC)c2OC)CC1 | inconclusive: 28.2 µM [inhibitor, partial curve] |  |
| CC12CCC(C(=O)N(CSC(=S)N/N=C\c3ccccc3O)C1=O)C2(C)C (centres undefined) | inconclusive: 39.8 µM [inhibitor, single point] |  |
| COc1ccc(CCNC(=O)CC(c2ccccc2)c2cc(C)ccc2O)cc1OC (centres undefined) | inconclusive: 22.4 µM [inhibitor, partial curve] |  |
| COc1ccc(C2C(C#N)=C(N)Oc3c2sc2nc(C)cc(C)c32)cc1 (centres undefined) | inconclusive: 31.6 µM [activator, partial curve] |  |
| Cc1ccc(-c2cc(C(=O)Nc3c(C(=O)c4ccccc4)oc4ccccc34)no2)cc1F |  | inactive: 13.7% [at 76.3 µM] |
| COc1ccc(/C(C)=N/Nc2nncc3ccccc23)cc1 | inconclusive: 11.2 µM [inhibitor, single point] |  |
| N=c1c2c(-c3ccccc3)c(-c3ccccc3)n(Cc3ccco3)c2ncn1Cc1ccccc1 |  | inactive: 6.63% |

| Compound | Potency | activity change, negative = inhibition |
| --- | --- | --- |
| Cc1nn(-c2ccccc2)c(C)c1/C=N/Nc1nc2ccccc2[nH]1 | inconclusive: 11.2 µM [inhibitor, single point] |  |
| Cc1[nH][nH]c(=O)c1C(c1ccc([N+](=O)[O-])cc1)c1c(C)[nH][nH]c1=O | inconclusive: 15.8 µM [inhibitor, single point] |  |
| Cc1ccnc(NC(c2ccccc2O)c2oc(CO)cc(=O)c2O)c1 (centres undefined) | inconclusive: 12.6 µM [inhibitor, partial curve] |  |
| COc1ccc(CCNC(=O)c2ccc3c(c2)NC(=O)C(C(C)C)N3)cc1OC (centres undefined) | inconclusive: 3.16 µM [inhibitor, partial curve] |  |
| O=C(CSc1nc(-c2ccccc2)[nH]c1-c1ccccc1)Nc1ccc2c(c1)OCCO2 |  | inactive: -7.27% [at 76.3 µM] |
| Cc1ccc(-n2cc(S(=O)(=O)c3ccc(C)cc3)[nH]c2=O)cc1 |  | inactive: -9.98% |
| N/C(COc1ccc(Cl)cc1)=N\NS(=O)(=O)c1ccccc1 | inconclusive: 25.1 µM [inhibitor, partial curve] |  |
| COc1cc(-c2cc(OC)c3c(C)oc(C)c3c(=O)c2)ccc1OC(=O)c1ccccc1C |  | inactive: -3.66% [at 76.3 µM] |
| CCc1ccc2oc(-c3ccc(OC)cc3)cc(=Nc3c(C)n(C)n(-c4ccccc4)c3=O)c2c1 | inconclusive: 19.8 µM [inhibitor, single point] |  |
| COc1ccc(-c2cc(C(=O)Nc3c(Cl)cccc3Cl)no2)cc1OC |  | inactive: 5.2% [at 76.3 µM] |
| CCOC(=O)Cc1cc(=O)c2c(=O)n(-c3ccccc3)[nH]c2[nH]1 | inconclusive: 19.8 µM [inhibitor, single point] |  |
| CCOc1ccc(-c2nc3c(C#N)c[nH]n3c2NC2CCCC2)cc1 |  | inactive: 13% [at 76.3 µM] |
| Cc1cccc(C)c1Nc1c(-c2ccccn2)nc2ccccn12 | inconclusive: 5.62 µM [inhibitor, full curve] |  |
| COc1ccc(Cl)cc1NC(=S)Nc1ccccc1F | inconclusive: 50.1 µM [inhibitor, single point] |  |
| CNC(=O)c1ccc(-c2sc3nc(N4CCOCC4)c4c(c3c2N)CC(C)(C)OC4)o1 | inconclusive: 2.51 µM [inhibitor, full curve] |  |
| N#C/C(=C/Nc1ccccc1)c1ccsc1 | inconclusive: 7.88 µM [inhibitor, partial curve] |  |
| C/C(=N\NC(=O)c1c(Cl)c(C)nn1C)c1cccc(NC(=O)C2CCCC2)c1 | inconclusive: 50.1 µM [inhibitor, single point] |  |
| CCc1cc(C(c2ccccn2)N2CCN(C)CC2)c(NC(=O)c2ccccc2)s1 (centres undefined) |  | inactive: -3.83% |
| COc1cc(C(Nc2ccccn2)c2c(NC(=O)c3ccco3)sc(C)c2C)cc(OC)c1OC (centres undefined) | inconclusive: 39.5 µM [inhibitor, single point] |  |
| Cc1cnn(CCC(=O)NNC(=S)Nc2cccc(Cl)c2)c1 | inconclusive: 39.8 µM [inhibitor, partial curve] |  |
| COc1ccccc1N1CCN(Cc2cc3c(cc2O)OCO3)CC1 | inconclusive: 7.08 µM [inhibitor, partial curve] |  |
| CCC1(C)N(O)C(C)(C)C(c2ccc(F)cc2)=[N+]1[O-] (centres undefined) | inconclusive: 28.2 µM [inhibitor, partial curve] |  |

Reference: PubChem BioAssay AID2100 (National Center for Advancing Translational Sciences (NCATS), 2009)
